# Laboratory results from US7422849 (LUDWIG INSTITUTE FOR CANCER RESEARCH, dated 2008).
# Biological target: bovine p85α (bovine, UniProt P23727 1-724)
# Experiment: cell-based or functional assay
# UniProt P23727, sequence (P23727 whole entry): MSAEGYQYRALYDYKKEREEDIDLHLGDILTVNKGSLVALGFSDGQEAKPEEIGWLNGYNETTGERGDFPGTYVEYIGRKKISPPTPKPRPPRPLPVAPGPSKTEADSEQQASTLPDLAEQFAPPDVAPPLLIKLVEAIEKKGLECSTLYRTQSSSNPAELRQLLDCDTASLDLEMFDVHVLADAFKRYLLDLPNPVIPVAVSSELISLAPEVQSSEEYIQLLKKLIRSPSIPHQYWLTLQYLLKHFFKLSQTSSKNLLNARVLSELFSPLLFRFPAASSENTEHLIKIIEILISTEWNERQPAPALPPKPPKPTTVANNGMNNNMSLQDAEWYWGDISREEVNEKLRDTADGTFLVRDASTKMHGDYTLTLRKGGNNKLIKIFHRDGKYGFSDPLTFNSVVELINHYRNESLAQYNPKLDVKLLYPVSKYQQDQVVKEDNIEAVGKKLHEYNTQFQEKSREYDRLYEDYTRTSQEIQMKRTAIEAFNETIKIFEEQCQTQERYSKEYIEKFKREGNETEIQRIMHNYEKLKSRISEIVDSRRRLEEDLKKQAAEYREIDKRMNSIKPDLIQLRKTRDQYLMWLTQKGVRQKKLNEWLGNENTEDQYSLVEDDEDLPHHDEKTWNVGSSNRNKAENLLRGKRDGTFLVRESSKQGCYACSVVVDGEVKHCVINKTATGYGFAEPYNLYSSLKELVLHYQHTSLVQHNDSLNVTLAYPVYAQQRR
binder,measurement,value
bovine p110 (enzyme) not shown,PI3-kinase activity in anti-p85α immunoprecipitates of transfected COS-1 cells,10 fold
